Reference: PubChem BioAssay (NCATS)
Inconclusive means that the source gave no clear call. Such entries were picked first, then a sample of the others. Potencies of inconclusive entries are left out as doubtful fits. The source made the active and inactive calls. The call rests on the fitted dose curve; in most records, active means well fitted curve in the direction sought with a large enough effect; inconclusive means small, poorly fitted or top-dose-only effect, or another doubt; inactive means no such curve, though single readings can be large; an effect the other way counts as inactive or inconclusive.

Assays:
[1] = Primary redox qHTS assay for identification of artifact compounds. (AID 1845223)
How it was run: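 Redox-cycling detection via DTT (250 uM final) oxidation coupled to Amplex Red (25 uM)/HRP (250 mU/mL) in HBSS. 15 min preincubation plus 30 min after DTT, room temperature. Ex/Em 525/598 nm; 4-parameter Hill fit against DMSO and 10 uM DA3003.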

[2] = Quantitative High-Throughput drug screen in 47 multiple myeloma cell lines against the NCATS MIPE library collection: EJM_DSMZ cell viability assay (AID 1918926; further: nearly all actives have a fitted effect of over 30% in size); settings: EJM myeloma cell viability, CellTiter-Glo ATP, 48 h; viability, % of control: at 45.8 µM (top of the series)
How it was run: (§1)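 Inhibition of cell viability is measured here. Each line was plated at 500 cells per well, treated with MIPE 4.0 drugs, kept 48 hours at 37C, then assayed for ATP content by CellTiter-Glo luminescence.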

[3] = Quantitative High-Throughput drug screen in 47 multiple myeloma cell lines against the NCATS MIPE library collection: AMO1_DSMZ cell viability assay (AID 1918927; further: nearly all actives have a fitted effect of over 30% in size); settings: AMO1 myeloma cells viability, CellTiter-Glo ATP luminescence, 48 h; viability, % of DMSO: at 45.8 µM (top of the series)
How it was run: as §1

[4] = Quantitative High-Throughput drug screen in 47 multiple myeloma cell lines against the NCATS MIPE library collection: ARP1_JJKsccF8 cell viability assay (AID 1918928; further: nearly all actives have a fitted effect of over 40% in size); settings: ARP1 myeloma cells viability, CellTiter-Glo ATP, 48 h; viability: at 45.8 µM (top of the series)
How it was run: (§2)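 Viability screen: myeloma cells (500/well) incubated 48 h at 37 °C, humidified 5% CO2, with pinned library compounds; CellTiter-Glo added, luminescence read; DMSO wells set 100%, medium-only wells 0%.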

[5] = Quantitative High-Throughput drug screen in 47 multiple myeloma cell lines against the NCATS MIPE library collection: Karpas620_DSMZ cell viability assay (AID 1918959); settings: Karpas620 myeloma viability, CellTiter-Glo ATP luminescence, 48 h; viability (% of DMSO): at 45.8 µM (top of the series); further: nearly all actives have a fitted effect of over 30% in size
How it was run: (§3)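 Steps: seed 500 cells per well; pin-transfer MIPE 4.0 library; incubate 48 h at 37C, 5% CO2, humidified; add CellTiter-Glo, 5 min room temperature; read luminescence.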

[6] = Quantitative High-Throughput drug screen in 47 multiple myeloma cell lines against the NCATS MIPE library collection: KMM1_JCRB cell viability assay (AID 1918960); settings: KMM1 myeloma viability, CellTiter-Glo ATP luminescence, 48 h; viability (% of DMSO): at 45.8 µM (top of the series); further: nearly all actives have a fitted effect of over 30% in size
How it was run: as §2

[7] = Quantitative High-Throughput drug screen in 47 multiple myeloma cell lines against the NCATS MIPE library collection: Karpas417_ECACC cell viability assay (AID 1918961); settings: Karpas417 myeloma viability, CellTiter-Glo ATP luminescence, 48 h; viability (% of DMSO): at 45.8 µM (top of the series)
How it was run: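 CellTiter-Glo luminescence (ATP) after 48 h compound exposure, 37C/5% CO2; 500 cells/well; MIPE 4.0 approved/investigational drugs pinned in; DMSO = 100%, media only = 0% viability.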

[8] = Quantitative High-Throughput drug screen in 47 multiple myeloma cell lines against the NCATS MIPE library collection: FR4_PLB cell viability assay (AID 1918924; further: nearly all actives have a fitted effect of over 35% in size); settings: FR4_PLB myeloma cells viability, CellTiter-Glo ATP, 48 h; viability (% of DMSO control): at 45.8 µM (top of the series)
How it was run: as §3

[9] = Quantitative High-Throughput drug screen in 47 multiple myeloma cell lines against the NCATS MIPE library collection: Delta47_JCRB cell viability assay (AID 1918925; further: nearly all actives have a fitted effect of over 45% in size); settings: Delta47 myeloma viability, CellTiter-Glo ATP, 48 h; viability (% of DMSO): at 45.8 µM (top of the series)
How it was run: as §1

[10] = Quantitative High-Throughput drug screen in 47 multiple myeloma cell lines against the NCATS MIPE library collection: ARD_JJKsccE7 cell viability assay (AID 1918929); settings: ARD myeloma cell line viability, CellTiter-Glo, 48 h; viability: at 45.8 µM (top of the series)
How it was run: as §1
Potency means the concentration at half of the fitted maximal effect; tags describe the fitted curve by direction and shape.

Row | Compound | Potency [1] | Potency [2] | Potency [3] | Potency [4] | Potency [5] | Potency [6] | Potency [7] | Potency [8] | Potency [9] | Potency [10] | viability (% of DMSO) [7]
1 | CC1(COc2ccc3c(c2)ncn3-c2ccc3cccc(N4CCC(N)CC4)c3n2)COC1 | inconclusive [activator, single point] | inconclusive [cytotoxic, full curve] | inconclusive [cytotoxic, partial curve] | inconclusive [cytotoxic, full curve] | inconclusive [cytotoxic, partial curve, poor fit] | inconclusive [cytotoxic, full curve] | active: 1.18 µM |  |  |  | 
2 | Cc1cc(-c2ncc(CC(=O)Nc3ccc(-c4cnccn4)cn3)cc2C)ccn1 |  | inconclusive [cytotoxic, partial curve, poor fit] | active: 11.8 µM | inconclusive [cytotoxic, partial curve] | inconclusive [cytotoxic, partial curve] | inconclusive [cytotoxic, partial curve] | inconclusive [cytotoxic, partial curve, poor fit] | inconclusive [cytotoxic, partial curve] | active: 14.8 µM | active: 9.35 µM | 
3 | CCCCC(F)(F)[C@@]1(O)CC[C@H]2[C@H](CC(=O)[C@@H]2CCCCCCC(=O)O)O1 | inconclusive [activator, partial curve, poor fit] |  |  | inactive |  | inactive |  |  |  |  | 
4 | CN(C)CCCNC(=O)c1ccc(-c2cc(O)c3ncccc3c2)cc1 | inconclusive [activator, partial curve] | inconclusive [cytotoxic, single point] | inconclusive [cytotoxic, partial curve] | inconclusive [cytotoxic, partial curve] |  |  | inconclusive [cytotoxic, partial curve, poor fit] | active: 20.9 µM | inconclusive [cytotoxic, partial curve] | inconclusive [cytotoxic, single point] | 
5 | Nc1ncnc2c1c(-c1cccc(OCc3ccccc3)c1)cn2C1CC(CN2CCC2)C1 (centres undefined) | inconclusive [activator, partial curve, poor fit] | inconclusive [cytotoxic, partial curve, poor fit] |  | inconclusive [cytotoxic, partial curve] |  | active: 0.372 µM | inconclusive [cytotoxic, partial curve, poor fit] | active: 16.6 µM |  | active: 2.96 µM | 
6 | CCCCCN(CCC12CC3CC(CC(C3)C1)C2)C(=O)NCCCc1ccncc1 | inactive | active: 23.5 µM |  | inconclusive [cytotoxic, single point] |  |  | inconclusive [rising, full curve, poor fit] | active: 18.7 µM | inconclusive [cytotoxic, partial curve, poor fit] | active: 11.8 µM | 
7 | Clc1cccc(-n2nnnc2NCc2ccccc2Oc2ccccn2)c1Cl |  | inactive | inconclusive [cytotoxic, partial curve] | inconclusive [cytotoxic, full curve, poor fit] | inconclusive [cytotoxic, single point] | inconclusive [cytotoxic, partial curve] | inconclusive [cytotoxic, full curve, poor fit] | inactive | inconclusive [cytotoxic, single point] | inconclusive [cytotoxic, partial curve] | 
8 | O=C(CC12CC3CC(CC(C3)C1)C2)Nc1cccc2nc(NCCNCCO)ccc12 | inconclusive [activator, partial curve, poor fit] |  | active: 20.9 µM | inconclusive [cytotoxic, single point] | inconclusive [cytotoxic, single point] | inconclusive [cytotoxic, partial curve] | active: 1.48 µM | inconclusive [cytotoxic, single point] | active: 2.64 µM |  | 
9 | CC1(O)CC(c2nc(-c3ccc4ccc(-c5ccccc5)nc4c3)c3c(N)nccn23)C1 (centres undefined) |  |  |  |  |  |  |  | active: 7.43 µM |  |  | 
10 | Cc1cnc(-c2cc(N3CCN(C(=O)CCS(C)(=O)=O)CC3)ncc2Cl)c(C)c1 | inconclusive [activator, partial curve, poor fit] |  | inconclusive [cytotoxic, single point] |  |  | inconclusive [cytotoxic, single point] |  |  |  | inactive | 
11 | COCCOc1ccc2c(c1)ncn2-c1ccc2cccc(N3CCC(N)CC3)c2n1 | inconclusive [activator, partial curve, poor fit] |  |  |  |  |  | active: 0.59 µM |  | active: 4.18 µM |  | 
12 | CC(C)c1nc(CN(C)C(=O)N[C@H](C(=O)N[C@@H](Cc2ccccc2)C[C@H](O)[C@H](Cc2ccccc2)NC(=O)OCc2cncs2)C(C)C)cs1 | inconclusive [activator, partial curve, poor fit] |  | inconclusive [cytotoxic, full curve, poor fit] | inconclusive [cytotoxic, single point] |  | inactive | inactive |  | inconclusive [cytotoxic, partial curve, poor fit] |  | 
13 | Cc1cn(-c2cc(NC(=O)c3ccc(C)c(Nc4nccc(-c5cccnc5)n4)c3)cc(C(F)(F)F)c2)cn1 | inactive |  |  | inconclusive [cytotoxic, partial curve] |  | active: 0.264 µM | inconclusive [cytotoxic, full curve, poor fit] |  | inactive |  | 
14 | COc1ccc(-c2ccc3ncc4c(c3c2)n(-c2ccc(N3CCNCC3)c(C(F)(F)F)c2)c(=O)n4C)cn1 | inconclusive [activator, full curve, poor fit] |  |  |  |  | inconclusive [cytotoxic, full curve] | inconclusive [cytotoxic, full curve] | inconclusive [cytotoxic, full curve] | inconclusive [cytotoxic, partial curve, poor fit] | inconclusive [cytotoxic, full curve] | 
15 | COc1ccc2c(c1)CC[C@@H](CN(C)CC(=O)O)[C@H]2c1ccccc1 | inactive | inconclusive [cytotoxic, full curve] |  | active: 3.32 µM | inconclusive [cytotoxic, full curve] |  | inconclusive [cytotoxic, partial curve, poor fit] |  |  |  | 
16 | Cc1c(C(=O)Nc2ccc(N3C[C@@H](C)O[C@@H](C)C3)nc2)cccc1-c1ccc(OC(F)(F)F)cc1 | inactive | inconclusive [cytotoxic, partial curve] |  | inconclusive [cytotoxic, partial curve] |  | active: 1.18 µM | active: 1.66 µM | inconclusive [cytotoxic, partial curve] |  |  | 
17 | Cn1cc(-c2ccncc2)c(-c2ccc(OCc3ccc4ccccc4n3)cc2)n1 | inconclusive [activator, partial curve, poor fit] | active: 14.8 µM |  |  |  |  | inconclusive [cytotoxic, partial curve, poor fit] | inconclusive [cytotoxic, partial curve] |  | active: 6.62 µM | 
18 | CNC1CCC(N(Cc2cccc(-c3ccncc3)c2)C(=O)c2sc3ccccc3c2Cl)CC1 (centres undefined) | inconclusive [activator, full curve, poor fit] | inconclusive [cytotoxic, partial curve, poor fit] |  | inconclusive [cytotoxic, single point] | active: 16.6 µM |  |  | active: 20.9 µM | active: 7.43 µM | inconclusive [cytotoxic, single point] | 
19 | Cc1cnc(Nc2cccc(CN3CCOCC3)c2)nc1Nc1cccc(S(=O)(=O)NC(C)(C)C)c1 | inactive |  |  |  |  | inconclusive [cytotoxic, partial curve] | active: 0.662 µM |  |  | inconclusive [cytotoxic, full curve, poor fit] | 
20 | c1ccc(CNc2nc(N3CCOc4ccccc43)nc3c2CCCC3)cc1 | inactive |  |  | inconclusive [cytotoxic, single point] |  | inconclusive [cytotoxic, partial curve, poor fit] |  |  | inconclusive [cytotoxic, partial curve, poor fit] |  | inconclusive: 10.3% [cytotoxic]
21 | Nc1ccccc1NC(=O)c1ccc(CNc2nccc(-c3cccnc3)n2)cc1 | inactive |  |  | active: 0.662 µM |  |  | active: 0.469 µM |  |  | active: 0.935 µM | 
